These are yes or no findings as the source states them, for the method shown. In cells and extracts the contact can be indirect. Some results given as binding are weak or reduced against the parent protein; the word gives no strength. Where a sequence is shown, tags or fusion partners need not be part of it.

The target in one experiment is T1, FLAG-Raf1 (S. pombe) (UniProt O74910).
T1 sequence: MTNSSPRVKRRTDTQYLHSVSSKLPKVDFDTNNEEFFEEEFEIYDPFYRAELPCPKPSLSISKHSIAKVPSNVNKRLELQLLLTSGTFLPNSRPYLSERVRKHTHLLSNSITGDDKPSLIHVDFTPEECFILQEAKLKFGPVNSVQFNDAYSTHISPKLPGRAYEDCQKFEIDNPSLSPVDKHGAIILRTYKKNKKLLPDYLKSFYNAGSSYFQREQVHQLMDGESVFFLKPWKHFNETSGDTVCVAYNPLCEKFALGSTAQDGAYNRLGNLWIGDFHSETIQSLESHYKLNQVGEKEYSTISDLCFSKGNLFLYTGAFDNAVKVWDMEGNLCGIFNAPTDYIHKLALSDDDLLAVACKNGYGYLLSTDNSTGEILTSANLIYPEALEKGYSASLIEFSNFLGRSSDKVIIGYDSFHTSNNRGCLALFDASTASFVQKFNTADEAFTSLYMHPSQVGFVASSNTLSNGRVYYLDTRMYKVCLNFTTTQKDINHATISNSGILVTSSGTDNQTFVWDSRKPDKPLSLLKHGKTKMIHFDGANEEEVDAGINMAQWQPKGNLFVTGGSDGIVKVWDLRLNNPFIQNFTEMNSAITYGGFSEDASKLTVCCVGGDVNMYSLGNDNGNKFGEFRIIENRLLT
The experiment is described as follows: co-IP; anti-FLAG M2 on proteinG Dynabeads, 1 hr, S. pombe lysate (50 mM Hepes pH7.5, 150 mM KCl, 0.1% NP40), four washes, Western with anti-FLAG and anti-myc; raf1-1 panels and their wild type from cells grown at 36°C.

The target in experiment [1] is T2, Raf2-TAP (S. pombe), O74560.
T2 chain: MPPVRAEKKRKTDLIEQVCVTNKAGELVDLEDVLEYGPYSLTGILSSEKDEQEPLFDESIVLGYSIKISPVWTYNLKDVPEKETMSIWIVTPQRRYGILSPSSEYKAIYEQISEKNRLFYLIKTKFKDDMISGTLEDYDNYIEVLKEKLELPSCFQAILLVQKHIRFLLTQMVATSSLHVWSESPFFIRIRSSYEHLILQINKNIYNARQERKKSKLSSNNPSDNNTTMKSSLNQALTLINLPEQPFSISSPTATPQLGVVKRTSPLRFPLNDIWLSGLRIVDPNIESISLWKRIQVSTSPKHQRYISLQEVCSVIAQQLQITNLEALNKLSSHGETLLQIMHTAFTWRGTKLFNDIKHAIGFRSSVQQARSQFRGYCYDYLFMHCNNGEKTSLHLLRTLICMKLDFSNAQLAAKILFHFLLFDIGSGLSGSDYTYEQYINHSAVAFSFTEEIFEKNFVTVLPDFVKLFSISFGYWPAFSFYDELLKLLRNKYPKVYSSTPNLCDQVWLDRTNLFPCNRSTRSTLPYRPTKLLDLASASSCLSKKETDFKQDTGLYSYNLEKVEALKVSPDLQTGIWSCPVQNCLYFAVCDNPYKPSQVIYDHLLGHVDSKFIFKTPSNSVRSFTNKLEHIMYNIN
In words: co-IP; TAP-tagged bait on Dynabeads coupled to IgG, S. pombe lysate (50 mM Hepes pH7.5, 150 mM KCl, 0.1% NP40), Western with anti-FLAG; raf1-1 panel from cells grown at 36°C. The following applies: remark: other sources report otherwise.

Another experiment concerns the target T3, Raf2-TAP (S. pombe) (UniProt O74560).
T3 sequence: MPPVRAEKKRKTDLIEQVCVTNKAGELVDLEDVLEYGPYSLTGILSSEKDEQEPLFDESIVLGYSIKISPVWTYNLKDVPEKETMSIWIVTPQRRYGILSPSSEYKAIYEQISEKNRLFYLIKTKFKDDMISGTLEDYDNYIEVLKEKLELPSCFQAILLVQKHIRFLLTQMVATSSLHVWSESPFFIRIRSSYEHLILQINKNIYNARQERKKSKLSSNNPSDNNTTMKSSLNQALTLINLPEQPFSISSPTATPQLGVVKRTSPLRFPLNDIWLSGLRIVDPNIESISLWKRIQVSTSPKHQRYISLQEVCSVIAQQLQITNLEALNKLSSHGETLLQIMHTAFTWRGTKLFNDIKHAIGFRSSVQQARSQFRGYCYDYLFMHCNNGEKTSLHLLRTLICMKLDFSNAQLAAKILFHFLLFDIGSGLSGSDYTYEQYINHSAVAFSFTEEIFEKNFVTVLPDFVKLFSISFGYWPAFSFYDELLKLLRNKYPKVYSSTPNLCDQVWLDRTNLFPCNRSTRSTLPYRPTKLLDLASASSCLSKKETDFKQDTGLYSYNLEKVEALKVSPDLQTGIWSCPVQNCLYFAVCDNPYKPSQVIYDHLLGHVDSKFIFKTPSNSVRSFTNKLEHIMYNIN
Described as above.

B1: Rik1-Myc (protein, UniProt Q10426 1-1040)
chain: MALCVHSFWATAVDTATSCHFISSENCLVLLQALKINIYLCSEVHGLQFFTSIPLFSTVKHIRPYRPPGLDRDYLFVVLNDDTYFSIYWDEDYQKVIVDHPPVRYRVTFPWNRNAKSYCLVDLRMRAIFLSIDEISMICIRILSAEERLKTGRSIDSGFPFSFPVHLIYDMCILNDSSTPTLVVLHSDGLDCYVTAFLLDLSSKSLGKGIRLFERVKPSMIMPFGKRGLLVFESLFIHCMYRGNFVTINGPCTTYMHWTPLKGQKMHYIVCDTNGYLFGVYSSILGKNKWSLVMERLPIPPFDFITSLNSIHEGLLFIGSKNSESKLINLSTLKDVDSIPNLGPIHDLLVLKNDIEKSFLVCAGTPRNASLIYFQHALKLDILGQTKISGILRAMVLPSYPEHKLFLGFPSETVAFNIKEDFQLELDPSLSTKERTIALSGTNGEFVQVTSTFLCIYDSAKRSRLVYIEKITNAACYQEYSAIVINGTALAIFKKDTEVARKVFESEISCLDFSAQFQIGVGFWSKQVMILTFSDNSSISCAFQTNVPSLPRNIILEGVGVDRNLLLVSSGSGEFKSYVLFKNNLVFSETKHFGTTPVSFRRFTMNIGTYIICNNDCPHMVYGFNGALCYMPLSMPQSYDVCQFRDNSGKDFLISVSLGGLKFLQLNPLPELTPRKVLLEHVPLQAIIFQNKLLLRTLENRYEDYESYKENYHLELVDSYDDNSFRVFSFTENERCEKVLKINESSLLVGTSIIEQDKLVPVNGRLILLEFEKELQSLKVVSSMVLSAAVIDLGVYNDRYIVAFGQQVAIVKLTEERLMIDSRISLGSIVLQLIVEGNEIAIADSIGRFTIMYFDGQKFIVVARYLFGENIVKAALYEGTVYIIATNSGLLKLLRYNKDAKNFNDRFICESVYHLHDKVSKFQNFPITNTNSFLEPKMLFATEIGAIGSIVSLKDKELELEELTRKIRKLKFSYLSSMDYESIEADLISPVPFIDGDLVIDVKRWASSELFRLCRSVEHRESLNSYQKVQALLEEIQSLC
With B1, in the experiment with FLAG-Raf1 (S. pombe), the binding entry is on record as “binds”.

B2: FLAG-Raf1, O74910 1-638 (protein)
chain: MTNSSPRVKRRTDTQYLHSVSSKLPKVDFDTNNEEFFEEEFEIYDPFYRAELPCPKPSLSISKHSIAKVPSNVNKRLELQLLLTSGTFLPNSRPYLSERVRKHTHLLSNSITGDDKPSLIHVDFTPEECFILQEAKLKFGPVNSVQFNDAYSTHISPKLPGRAYEDCQKFEIDNPSLSPVDKHGAIILRTYKKNKKLLPDYLKSFYNAGSSYFQREQVHQLMDGESVFFLKPWKHFNETSGDTVCVAYNPLCEKFALGSTAQDGAYNRLGNLWIGDFHSETIQSLESHYKLNQVGEKEYSTISDLCFSKGNLFLYTGAFDNAVKVWDMEGNLCGIFNAPTDYIHKLALSDDDLLAVACKNGYGYLLSTDNSTGEILTSANLIYPEALEKGYSASLIEFSNFLGRSSDKVIIGYDSFHTSNNRGCLALFDASTASFVQKFNTADEAFTSLYMHPSQVGFVASSNTLSNGRVYYLDTRMYKVCLNFTTTQKDINHATISNSGILVTSSGTDNQTFVWDSRKPDKPLSLLKHGKTKMIHFDGANEEEVDAGINMAQWQPKGNLFVTGGSDGIVKVWDLRLNNPFIQNFTEMNSAITYGGFSEDASKLTVCCVGGDVNMYSLGNDNGNKFGEFRIIENRLLT
With B2, the binding result in experiment [1] was “binds”.

B3: FLAG-Raf1-R518A (protein, UniProt O74910 1-638)
chain: MTNSSPRVKRRTDTQYLHSVSSKLPKVDFDTNNEEFFEEEFEIYDPFYRAELPCPKPSLSISKHSIAKVPSNVNKRLELQLLLTSGTFLPNSRPYLSERVRKHTHLLSNSITGDDKPSLIHVDFTPEECFILQEAKLKFGPVNSVQFNDAYSTHISPKLPGRAYEDCQKFEIDNPSLSPVDKHGAIILRTYKKNKKLLPDYLKSFYNAGSSYFQREQVHQLMDGESVFFLKPWKHFNETSGDTVCVAYNPLCEKFALGSTAQDGAYNRLGNLWIGDFHSETIQSLESHYKLNQVGEKEYSTISDLCFSKGNLFLYTGAFDNAVKVWDMEGNLCGIFNAPTDYIHKLALSDDDLLAVACKNGYGYLLSTDNSTGEILTSANLIYPEALEKGYSASLIEFSNFLGRSSDKVIIGYDSFHTSNNRGCLALFDASTASFVQKFNTADEAFTSLYMHPSQVGFVASSNTLSNGRVYYLDTRMYKVCLNFTTTQKDINHATISNSGILVTSSGTDNQTFVWDSAKPDKPLSLLKHGKTKMIHFDGANEEEVDAGINMAQWQPKGNLFVTGGSDGIVKVWDLRLNNPFIQNFTEMNSAITYGGFSEDASKLTVCCVGGDVNMYSLGNDNGNKFGEFRIIENRLLT
For B3, the binding entry in the experiment with Raf2-TAP (S. pombe) is “binds weakly”.

B4: FLAG-Raf1-1 (protein, UniProt O74910 1-638)
chain: MTNSSPRVKRRTDTQYLHSVSSKLPKVDFDTNNEEFFEEEFEIYDPFYRAELPCPKPSLSISKHSIAKVPSNVNKRLELQLLLTSGTFLPNSRPYLSERVRKHTHLLSNSITGDDKPSLIHVDFTPEECFILQEAKLKFGPVNSVQFNDAYSTHISPKLPGRAYEDCQKFEIDNPSLSPVDKHGAIILRTYKKNKKLLPDYLKSFYNAGSSYFQREQVHQLMDGESVFFLKPWKHFNETSGDTVCVAYNPLCEKFALGSTAQDGAYNRLGNLWIGDFHSETIQSLESHYKLNQVGEKEYSTISDLCFSKGNLFLYTGAFDNAVKVWDMEGNLCGIFNAPTDYIHKLALSDDDLLAVACKNGYGYLLSTDNSTGEILTSANLIYPEALEKGYSASLIEFSNFLGRSSDKVIIGYDSFHTSNNRGCLALFDASTASFVQKFNTADEAFTSLYMHPSQVGFVASSNTLSNGRVYYLDTRMYKVCLNFTTTQKDINHAIISNSGILVTSSGTDNQTFVWDSRKPDKPLSLLKHGKTKMIHFDGANEEEVDAGINMAQWQPKGNLFVTGGSDGIVKVWDLRLNNPFIQNFTEMNSAITYGGFSEDASKLTVCCVGGDVNMYSLGNDNGNKFGEFRIIENRLLT
For the molecule B4, in the experiment with Raf2-TAP (S. pombe), the binding entry was “binds weakly”.

B5: FLAG-Raf1-R576A (protein, UniProt O74910 1-638)
chain: MTNSSPRVKRRTDTQYLHSVSSKLPKVDFDTNNEEFFEEEFEIYDPFYRAELPCPKPSLSISKHSIAKVPSNVNKRLELQLLLTSGTFLPNSRPYLSERVRKHTHLLSNSITGDDKPSLIHVDFTPEECFILQEAKLKFGPVNSVQFNDAYSTHISPKLPGRAYEDCQKFEIDNPSLSPVDKHGAIILRTYKKNKKLLPDYLKSFYNAGSSYFQREQVHQLMDGESVFFLKPWKHFNETSGDTVCVAYNPLCEKFALGSTAQDGAYNRLGNLWIGDFHSETIQSLESHYKLNQVGEKEYSTISDLCFSKGNLFLYTGAFDNAVKVWDMEGNLCGIFNAPTDYIHKLALSDDDLLAVACKNGYGYLLSTDNSTGEILTSANLIYPEALEKGYSASLIEFSNFLGRSSDKVIIGYDSFHTSNNRGCLALFDASTASFVQKFNTADEAFTSLYMHPSQVGFVASSNTLSNGRVYYLDTRMYKVCLNFTTTQKDINHATISNSGILVTSSGTDNQTFVWDSRKPDKPLSLLKHGKTKMIHFDGANEEEVDAGINMAQWQPKGNLFVTGGSDGIVKVWDLALNNPFIQNFTEMNSAITYGGFSEDASKLTVCCVGGDVNMYSLGNDNGNKFGEFRIIENRLLT
For the molecule B5, in the experiment with Raf2-TAP (S. pombe), the binding result is on record as “no binding”.
